Experimental data reported in the supplement of paper PMC6746778.
The list shows a part of the results. Repeats are few or missing, and single values can be far off.

Assays:
Assay in all cases: proliferation Z-score within cell line (SRB, relative to all inhibitors screened on that line); triple-negative breast cancer lines and a kinase inhibitor library; SRB is the sulforhodamine B protein stain; higher = less growth inhibition (more resistant)
Conditions in all cases: concentration: 1 µM; 4 days
Bt20 = test system: Bt20
Bt549 = test system: Bt549
HCC1143 = test system: HCC1143
HCC1806 = test system: HCC1806
HCC1937 = test system: HCC1937
HCC38 = test system: HCC38
HCC70 = test system: HCC70
Hs578T = test system: Hs578T
MDA-MB-231 = test system: MDA-MB-231
MDA-MB-435s = test system: MDA-MB-435s
MDA-MB-436 = test system: MDA-MB-436
MDA-MB-453 = test system: MDA-MB-453
MDA-MB-468 = test system: MDA-MB-468
SKBR7 = test system: SKBR7
SUM1315MO2 = test system: SUM1315MO2
SUM149PT = test system: SUM149PT
SUM159PT = test system: SUM159PT
SUM185PE = test system: SUM185PE
SUM229PE = test system: SUM229PE
SUM52PE = test system: SUM52PE
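Further: Single-dose primary screen of a 378-member kinase inhibitor library in 96-well plates, with growth read as absorbance of protein-bound SRB dye after TCA fixation.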

SMILES	proliferation Z-score within cell line (Bt20)	proliferation Z-score within cell line (Bt549)	proliferation Z-score within cell line (HCC1143)	proliferation Z-score within cell line (HCC1806)	proliferation Z-score within cell line (HCC1937)	proliferation Z-score within cell line (HCC38)	proliferation Z-score within cell line (HCC70)	proliferation Z-score within cell line (Hs578T)	proliferation Z-score within cell line (MDA-MB-231)	proliferation Z-score within cell line (MDA-MB-435s)	proliferation Z-score within cell line (MDA-MB-436)	proliferation Z-score within cell line (MDA-MB-453)	proliferation Z-score within cell line (MDA-MB-468)	proliferation Z-score within cell line (SKBR7)	proliferation Z-score within cell line (SUM1315MO2)	proliferation Z-score within cell line (SUM149PT)	proliferation Z-score within cell line (SUM159PT)	proliferation Z-score within cell line (SUM185PE)	proliferation Z-score within cell line (SUM229PE)	proliferation Z-score within cell line (SUM52PE)
Cc1cc([C@@H](C)Nc2ccccc2C(=O)O)c2nc(N3CCOCC3)cc(=O)n2c1	-1.29	-0.775	-0.317	-0.774	-1.03	0.021	-0.35	-0.658	0.32	0.0946	0.501	-1.53	-0.58	0.167	-0.223	0.218	0.395	-1.52	-0.185	-0.815
O=C1C(c2c(O)[nH]c3ccccc23)=Nc2ccccc21 [Indirubin]	0.674	0.471	0.433	0.759	0.632	0.0834	0.608	0.277	0.327	0.808	0.403	0.498	0.134	0.162	0.551	0.749	0.337	0.0875	0.967	0.643
Cc1ccc(C(=O)Nc2cccc(C(F)(F)F)c2)cc1Nc1nc(-c2cccnc2)nc2c1cnn2C	1.23	0.813	1.16	0.367	0.729	0.536	0.793	0.613	0.469	0.933	0.667	0.675	0.282	0.883	1.14	1.2	0.581	1.01	1.13	0.45
Nc1nc(N)c(N=O)c(OCC2CCCCC2)n1	0.618	0.602	0.525	0.915	0.57	0.446	0.459	0.53	0.597	0.585	0.678	0.955	0.95	0.982	0.448	0.586	0.382	0.322	0.497	0.591
C#Cc1cccc(Nc2ncnc3cc4c(cc23)OCCOCCOCCO4)c1 [Icotinib]	-0.346	0.647	-0.46	-0.95	-0.342	0.312	0.361	0.382	0.51	0.727	0.234	0.754	-0.479	0.51	0.423	-0.469	0.264	0.206	-0.385	0.478
CCC(=O)Nc1cccc(Oc2nc(Nc3ccc(N4CCN(C)CC4)cc3OC)ncc2Cl)c1	0.59	0.132	0.743	0.604	0.708	0.469	0.639	0.534	0.55	0.691	0.84	0.811	0.687	0.577	0.205	0.617	0.446	0.495	0.261	0.623
NC(=O)c1cccc(-c2cc(Nc3ccc(OC(F)(F)F)cc3)ncn2)c1	-0.775	0.85	0.302	0.64	0.437	0.0162	0.0943	0.722	0.302	0.0909	0.351	0.68	-0.0185	0.323	-0.0669	-0.0354	0.201	-0.43	-0.779	-0.758
C=CC(=O)N1CCC[C@@H](n2nc(-c3ccc(Oc4ccccc4)cc3)c3c(N)ncnc32)C1	0.263	0.885	0.152	-0.972	-0.613	0.677	0.765	0.782	1.03	0.923	0.784	-0.91	-0.866	0.667	1.05	0.28	0.755	0.97	0.464	0.751
COc1cc2nccc(Oc3ccc(NC(=O)C4(C(=O)Nc5ccc(F)cc5)CC4)cc3)c2cc1OC	-0.0321	0.632	0.00637	0.886	0.396	0.486	0.835	0.352	0.623	0.424	0.347	0.725	0.171	0.79	-0.41	0.698	-0.297	-0.407	-0.148	-1.29
COc1cc2/c(=N/c3ccc(Br)cc3F)nc[nH]c2cc1OCC1CCN(C)CC1 [Vandetanib (ZD6474)]	-0.882	0.813	-0.0447	-1.6	-0.369	0.411	-0.934	0.521	0.252	0.508	-0.442	1.14	-0.185	0.798	-0.601	-0.448	0.56	-0.422	-0.852	-0.651
